In the supplement of paper PMC10338343:
± gives the standard deviation. In all, about 6,600 sequences were measured (“pre-steady-state target cleavage rate”: median about 0.07, highest 2% from about 0.72 on). This is a selection; strong and weak results do not stand in their true shares.

Test system: MIWI (PIWIL1) piRISC loaded with Kctd7 piRNA (30 nt)
Experiment: pre-steady-state target cleavage rate (min^-1); MIWI and MILI are mouse PIWI proteins and EfPiwi is from a freshwater sponge; tags in brackets are library labels; higher = faster piRNA-guided slicing of the target
Settings: guide: Kctd7 piRNA 5'p-UGUUAAUCUCUCAGAGAAGGUGACAGUGAU; auxiliary factor: 500 nM mouse GTSF1
Protocol: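 Cleave-'n-Seq: a library of target RNAs (target site embedded in constant flanks, ACAGCATTCCGCGTTAGTGATATCCG... 5' flank; DNA-blocked outside the site) at 0.1 nM was incubated with 1 nM active mouse MILI or MIWI piRISC (synthetic 5'-monophosphorylated piRNA guide) with or without 500 nM mouse GTSF1 at 33 °C for 1 min to 16 h. Uncleaved targets were sequenced and normalised to non-target controls, and the pooled three trials were fitted to a burst-and-steady-state model to give the pre-steady-state cleavage rate (min^-1; k3 is constrained to at most 1e-4). Sequence is the target site only; target names encode pairing extent (gX:gY) and contiguous / 1-mismatch / 2-mismatch / bulge geometry. Fits with R² ≤ 0 are excluded.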

Row | Sequence | pre-steady-state target cleavage rate
1 | AUCACUGUCACGAUCUCUGAGAGAUUAUGA | 0.0423 ± 0.014
2 | UAGUGACAGACCUUCUCUGAGAGUAAAACA | 0.00953 ± 0.0037
3 | UAGUGACAGACCUUCUCUUAGAGAUUAACA | 0.0217 ± 0.0053
4 | UAGUCUGUCACCUUUCUGAGAGAUUAACA | 0.354 ± 0.018
5 | UAGUGAGUCUCCUUCUCUGAGAGAUUAUCA | 0.064 ± 0.014
6 | UAGUGUGUCACCUUCUCUGAGGAUUAACA | 0.0111 ± 0.0062
7 | UAGUGACUCACCUUCUCUGACAGAUUAACA | 0.393 ± 0.048
8 | UAGUGAGUGACCUUCUCUGACAGAUUAACA | 0.123 ± 0.016
9 | UAGUGAGUACCUUCUCUGAGAGAUUAACA | 0.406 ± 0.024
10 | UACACUGUCACCUUCUCUGAGAGAUAUAACA | 0.322 ± 0.042
11 | AUCAGUGACACCUUCUCUGAGAGAUUAACA | 0.569 ± 0.024
12 | UAGACUGACACCUUCUCUGAGAGAUUAUCA | 0.278 ± 0.042
13 | UUCACUGUCACCUUCUCUGACAGAUUAUGA | 0.00929 ± 0.0039
14 | UUCACUGUCACCUUCUCUGAGAGUUUUACA | 0.559 ± 0.12
15 | UAGUGAGUCACCUUCUCUCUGAGAUUAACA | 0.0164 ± 0.0037
16 | UAGUGUGUCACCUUCUCUGAGUGUUUAACA | 0.0686 ± 0.014
17 | UAGUGACACACCUUGUCUGAGAGAUAAACA | 0.0911 ± 0.022
18 | UAGUGACUCACCUUCUCAGAGAGAUUUACA | 0.0695 ± 0.012
19 | AUCACUGUCACCUUCUCUGAGAGAGUUAACA | 0.651 ± 0.088
20 | UAGUGUGUCACCUAGUCUGAGAGAUUAACA | 0.266 ± 0.023
21 | UUCACUGUCACCUUGUCUGAGAGAUAAACA | 0.3 ± 0.051
22 | AUCACAGACACCUUCUCUGAGAGAUUAACA | 0.713 ± 0.044
23 | UAGACUCUCACCUUCUCUCAGAGAUUAACA | 0.0518 ± 0.0063

Row | Sequence | pre-steady-state target cleavage rate
24 | UACACUGUCACCUUCUCUGAGAGAUUACACA | 0.185 ± 0.027
25 | AUCACUGUCACCAAGUCUGAGAGAUUAUGA | 0.0155 ± 0.0062
26 | UAGUGACAGUGGAACUCUGAGAGAUAAACA | < 0.0001
27 | UAGACUGUCACCUUGUCUGAGAGAUAUUGA | 0.038 ± 0.014
28 | UAGUGACAGUGGAAGUCUGAAGAUUAACA | < 0.0001
29 | AUGACUGUCACCUUCUCUGAGAGAUAAACA | 0.388 ± 0.037
30 | UAGUGAGUCCACCUUCUCUGAGAGAUUAACA | 0.379 ± 0.037
31 | UAGUCUGUCUCCUUCUCUGAGAGAUUUUGA | 0.0109 ± 0.0036
32 | UUCACUGUCACCUUGUCUGAGUGAUUAACA | 0.0394 ± 0.0054
33 | AUCACUGACACCUUCUCUGAGAGUUUAACA | 0.644 ± 0.16
34 | UAGUGUGUCACCUUCUCUCAGAGAUUAAGA | 0.0814 ± 0.021
35 | AUCACUGUCACCUUCUGUGUGAGAUUAACA | 0.101 ± 0.0082
36 | AUCACUGUCACCUUCUCUGAGAGAUUAUCA | 0.407 ± 0.057
37 | UACACUGUCACCUUCACUGAGACAUUAACA | 0.19 ± 0.025
38 | UAGUGUGUGACCAUCUCUGAGAGAUUAACA | 0.416 ± 0.035
39 | UAGACUGUCACCUUCUCUGAGAGGAUUAACA | 0.369 ± 0.036
40 | UAGACUGUCACCUUCUCUGAGUGUUUAACA | 0.00739 ± 0.002
41 | UUCACUGUCACCUUCUGUGAGAGAUUUUGA | 0.113 ± 0.031
42 | UAGUGACUCACCUUCUCUGAGUGAAUAACA | 0.0078 ± 0.0031
43 | UUCACUGUCACCUUCUCUGAGAGAUUUUGA | 0.271 ± 0.069
44 | UAGUGACACACCUUCUCAGACAGAUUAACA | 0.0107 ± 0.004
45 | UAGACUGUCACCUUGUCUCAGAGAUUAACA | 0.0345 ± 0.0054
46 | UACACUGUCACCUUCACUGAGAGAUUAAGA | 0.116 ± 0.027

Row | Sequence | pre-steady-state target cleavage rate
47 | UAGUGUGUCACCAUCUCUGAGAGAUUAACA | 0.609 ± 0.037
48 | UAGUGAGUCACCUUCUCUGAGAGUAUAUGA | 0.0298 ± 0.012
49 | UUCUGAGUCACCUUCUCUGAGAGAUUAUGA | 0.189 ± 0.037
50 | UACACUGUGACCUUCUCUGAGAGAUAUUGA | 0.0118 ± 0.0059
51 | UAGACUGACACCUUCUCUGAGUGAUUAACA | 0.023 ± 0.0043
52 | UAGACUGUCACCUACUCUGAGAGAUUAUCA | 0.257 ± 0.036
53 | UAGUGUGUCACGAACUCUGAGAGAUUAACA | 0.0752 ± 0.0083
54 | AUCACUGUCACCUUCUCUCAGAGAAUAACA | 0.0453 ± 0.012
55 | UAGUGACAGUCCAUCUCUGAGAGAUUAACA | 0.00671 ± 0.0019
56 | UAGUGUGUCACCUUCUCUGAGAGCAUUAACA | 0.347 ± 0.034
57 | UAGUGUGUCACCUUCUCAGAGAGAUUAACA | 0.44 ± 0.028
58 | UAGUGACUCACGUUCUCUGAGAGAUUAUCA | 0.0666 ± 0.01
59 | UAGUGAGUCACCUUCUCUGAGAGAUUCAACA | 0.393 ± 0.067
60 | AUCACUGUCACCUUCUCACUGAGAUUAACA | 0.00716 ± 0.0042
61 | UAGUGACACACCAACUCUGAGAGAUUAAGA | 0.00572 ± 0.0031
62 | UAGUGACAGUCCUUUCUCUGAGAGAUUAACA | 0.503 ± 0.038
63 | UUCACUUUCACCUUCUCUGAGAGAUUAACA | 0.633 ± 0.027
64 | UUCACUGUCACCAUCUCUCAGAGAUUAACA | 0.0623 ± 0.0089
65 | UUCACUGUGACCUUCUCAGAGAGAUUAACA | 0.238 ± 0.018
66 | UAGUGACAGUCCUUCUCUGAGAGAUUAACG [g2:g20:cont:t1G] | 0.0562 ± 0.009
67 | UAGUGACAGUGGAUCUCUGACUGAUUAACA | < 0.0001
68 | UAGUGACUCACCUUCUCUGAGAUGAUUAACA | 0.00526 ± 0.0026
69 | UAGUGACACACCUUCUCUCAGACAUUAACA | 0.0146 ± 0.0058

Row | Sequence | pre-steady-state target cleavage rate
70 | UAGUGACUCACCUUCUCUGUCAGAUUAACA | 0.0037 ± 0.0029
71 | AUCACUGUCACCUUCUCUCAGAGAUUAUGA | 0.0256 ± 0.0087
72 | UAGACUCUCACCUUCUCUGAGAGAAUAACA | 0.238 ± 0.038
73 | UACACUGUCACCUUCUCUGGGAGAUUAACA | 0.477 ± 0.029
74 | UAGUGACACACCUUCUCUGAGAGAUUUAGA | 0.0271 ± 0.0099
75 | UAGUGAGACACCUUCUCUGAGAGAAUAACA | 0.13 ± 0.02
76 | UAGUGACACACCAUCUCUGACAGAUUAACA | 0.0227 ± 0.0047
77 | UACACUCUCACCUUCUCUGAGAGAUAUUGA | 0.0441 ± 0.015
78 | UAGUCUGACACCUUCUCUGAGAGAUUAUCA | 0.265 ± 0.027
79 | UUCACUGUCACCUUCUCUCGAGAGAUUAACA | 0.593 ± 0.17
80 | UUCACAGUGACCUUCUCUGAGAGAUUAACA | 0.463 ± 0.029
81 | UAGUGACAGACCUUCUCUGAGAGAUUAUGA | 0.00752 ± 0.0042
82 | UACACACUCACCUUCUCUGAGAGAUUAAGA | 0.106 ± 0.024
83 | UACACUGUCACCUUCUCUGAGAGUUAACA | 0.372 ± 0.11
84 | UUCACUGUCAGCUUCUCUGAGAGAUAAACA | 0.306 ± 0.03
85 | UAGUGUGUCAGCUUCUCUGAGAGAAUAACA | 0.296 ± 0.045
86 | UAGUGACAGACCUUCUCUGAGAGAUUAAGCA | 0.0779 ± 0.016
87 | UAGUGUGUCACCUUCUCUGAGAAGAUUAACA | 0.017 ± 0.005
88 | UAGUGAGUCUGCUUCUCUGAGAGAUUAUGA | 0.00288 ± 0.0022
89 | UAGUCAGUCACCUUCUCUGAGAGAUUAAGA | 0.141 ± 0.02
90 | UAGACUCUCACCUUCUGUGAGAGAUUAACA | 0.093 ± 0.012
91 | UUCACUGUCACCUUCUCUGAGAGAUAUUGA [g6:g29:cont:t1A] | 0.0824 ± 0.022
